Measurements: the supplement of paper PMC8728848
Some of the results follow.

How the values were obtained:
Experiment in all cases: glycan array binding signal (z-score within array); higher = stronger binding
Settings in all cases: glycan notation: IUPAC condensed, linker removed
[1] = target: Neu5Ac(a2-8)Neu5Ac(a2-8)Neu5Ac(a2-8)Neu5Ac
Procedure, shortened: (§1)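 The binding signal is a Z-score computed within each array and averaged over linkers. Arrays of the same protein sequence at different concentrations or buffers were also averaged together. Data originate from 3228 arrays in the Consortium for Functional Glycomics database, kept only where the protein sequence was available.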

[2] = target: Neu5Ac(a2-8)Neu5Ac(a2-8)Neu5Ac(a2-8)Neu5Ac(a2-8)Neu5Ac
Procedure, shortened: as §1

[3] = target: Neu5Ac(a2-8)Neu5Ac(a2-8)Neu5Ac(a2-8)Neu5Ac(a2-8)Neu5Ac(a2-8)Neu5Ac
Procedure, shortened: as §1

[4] = target: Neu5Ac(a2-8)Neu5Ac(a2-8)Neu5Ac(a2-8)Neu5Ac(a2-8)Neu5Ac(a2-8)Neu5Ac(a2-8)Neu5Ac
Procedure, shortened: as §1

[5] = target: Neu5Ac(a2-8)Neu5Ac(a2-8)Neu5Ac(a2-8)Neu5Ac(a2-8)Neu5Ac(a2-8)Neu5Ac(a2-8)Neu5Ac(a2-8)Neu5Ac
Procedure, shortened: as §1

[6] = target: Neu5Ac(a2-8)Neu5Ac(a2-8)Neu5Ac(a2-8)Neu5Ac(a2-8)Neu5Ac(a2-8)Neu5Ac(a2-8)Neu5Ac(a2-8)Neu5Ac(a2-8)Neu5Ac
Procedure, shortened: as §1

[7] = target: Neu5Ac(a2-8)Neu5Ac(a2-8)Neu5Ac(a2-8)Neu5Ac(a2-8)Neu5Ac(a2-8)Neu5Ac(a2-8)Neu5Ac(a2-8)Neu5Ac(a2-8)Neu5Ac(a2-8)Neu5Ac
Procedure, shortened: as §1

[8] = target: Neu5Ac(a2-8)Neu5Ac(a2-8)Neu5Ac(a2-8)Neu5Ac(a2-8)Neu5Ac(a2-8)Neu5Ac(a2-8)Neu5Ac(a2-8)Neu5Ac(a2-8)Neu5Ac(a2-8)Neu5Ac(a2-8)Neu5Ac
Procedure, shortened: as §1

[9] = target: Neu5Ac(a2-9)Neu5Ac(a2-3)Gal(b1-4)Glc
Procedure, shortened: as §1

[10] = target: Neu5Ac(b2-3)Gal(b1-4)Glc
Procedure, shortened: as §1

[11] = target: Neu5Ac(b2-6)Gal(b1-4)Glc
Procedure, shortened: as §1

[12] = target: Neu5Ac9Ac(a2-6)Gal(b1-4)GlcNAc
Procedure, shortened: as §1

[13] = target: Neu5Gc(a2-3)Gal(b1-4)Glc
Procedure, shortened: as §1

Measured: glycan array binding signal (z-score)

B1: MIC13 (Toxoplasma gondii), A0A125YWL1 (protein)
chain: IQLRQHRNGLGVEQSFVSEETDIVGGRISSLQAELDSYCHNRYKQLCDGGNKKFCDKTGVARYGTGIQSQQTAEWRCYFAEVLKPSGRKVQCVDDCGNYFPCLGVVDPNDTFHATAHNQILNFIKDGVEKHCSPFQMAGNNYCQGVLADTVARKDTGTASQKAKAWRCYKKDSLTYEARSICVDNCGGEIECPGGRSETSGELLSQHYTREKELQKVIESQSAPCHDACVATPINPPICADTESLLQSTKRSRAQRFIDDACQKLFNCHCKKDKKFCTTVVARKDRGRAGSQNDAEWRCYSLEELDFQKTNPSCIDECGNELPCQGAVPEESTHHITWTKLPSKIDEATQKFCTERQRAANDYCASEFADSLARYGPGAGDQTSQFRCIKKAAMRADAEGQCADSCKGTETCGGGRSRLDGPLSVDDVLNAHEGISEAMKSASTEC
-0.038: [13]
8.12: [9]
-0.221: [2]
-0.287: all other assays above
